Reference: PubChem BioAssay AID485344 (National Center for Advancing Translational Sciences (NCATS), 2010)
Among all 340,000 compounds or so, about 6,900 (2%) were called active. Rule as the data show it: active = inhibition above about 30%; inactive = below that, where a call was filed. This is a selection; strong and weak results do not stand in their true shares. Where no call is shown, the source filed none.

target: D(2) dopamine receptor (Homo sapiens) (UniProt P14416); test: HTS Assay for Allosteric Antagonists of the Human D2 Dopamine Receptor: Primary Screen for Antagonists; conditions: HEK293 TREx D2 cells, calcium flux, dopamine EC80; at 10 µM; stronger effect = higher value; also: 0% is about no effect
Procedure, shortened: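 Antagonism is scored as inhibition of an EC80 dopamine-evoked calcium signal in a force-coupled, tetracycline-inducible HEK293 T-REx D2 line, with compound present 180 s before agonist.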

UniProt P14416, sequence (P14416 whole entry, looked up): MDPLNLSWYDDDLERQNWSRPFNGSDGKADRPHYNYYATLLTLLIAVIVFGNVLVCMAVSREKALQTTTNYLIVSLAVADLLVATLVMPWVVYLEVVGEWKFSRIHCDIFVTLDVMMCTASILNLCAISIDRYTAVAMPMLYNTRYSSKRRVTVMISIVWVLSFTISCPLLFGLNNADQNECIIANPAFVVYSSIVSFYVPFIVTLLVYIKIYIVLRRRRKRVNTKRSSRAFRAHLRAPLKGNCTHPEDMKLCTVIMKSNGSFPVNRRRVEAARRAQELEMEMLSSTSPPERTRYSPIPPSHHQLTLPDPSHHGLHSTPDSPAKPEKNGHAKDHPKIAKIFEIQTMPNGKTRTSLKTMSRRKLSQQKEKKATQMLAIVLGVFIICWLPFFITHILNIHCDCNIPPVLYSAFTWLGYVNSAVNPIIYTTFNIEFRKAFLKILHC

Question: `COc1ccc(CNS(=O)(=O)c2ccc3c(c2)NC(=O)C(C)C(=O)N3)cc1` (stereo unspecified) was tested. Which inhibition did it give?
Answer: 25.8%

Question: Which inhibition does the source give for `CN(CCC#N)C(=O)COC(=O)c1ccc(Cl)cc1O` here?
Answer: active: 46.6%

Question: `Cc1ccc(C)c(S(=O)(=O)Nc2ccc3c(c2)CCCN3C(=O)c2cccs2)c1` was tested. Which inhibition did it give?
Answer: 18.4%

Question: `Cc1ccc(C)c(Nc2ncnc3c2cnn3-c2ccc(F)cc2)c1` was tested. Which inhibition did it give?
Answer: -1.61%

Question: `COc1ccc(C)cc1NS(=O)(=O)c1ccc(-c2cnc(C3CC3)o2)cc1` was tested. Which inhibition did it give?
Answer: 5.65%

Question: How did the inhibition turn out when `CCOC(=O)Cn1nc(C)c(NC(=O)COc2ccc(C)c(C)c2)c1C` was run?
Answer: 0.117%

Question: Which inhibition does the source give for `COc1ccc(-c2cc(C(F)(F)F)nc(SCCC(=O)Nc3ccc(O)cc3)n2)cc1` here?
Answer: -7.96%

Question: `CCn1c2ccccc2c2nnc(N3CCN(c4ccc(OC)cc4)CC3)nc21` was tested. Which inhibition did it give?
Answer: -8.44%

Question: Which inhibition does the source give for `Cc1ccc(NC(=O)C2CCN(c3nc4ccccc4nc3C(F)(F)F)CC2)cc1C` here?
Answer: 2.1%

Question: With `CCN(CC)C(=O)CSc1cn(CC(=O)N2CCCCCC2)c2ccccc12` as the compound, how does the inhibition read?
Answer: 10.1%

Question: Which inhibition does the source give for `CCOc1ccc(-n2cc(-c3ccccc3)c3c(NCc4ccc(F)cc4)ncnc32)cc1` here?
Answer: -11.2%

Question: With `CCCN(CCC)S(=O)(=O)c1ccc(N2CCCCS2(=O)=O)cc1` as the compound, how does the inhibition read?
Answer: 5.93%

Question: With `Cc1cc(C)cc(N2C(=O)CS(=O)(=O)C23C(=O)N(C)c2ccccc23)c1` (stereo unspecified) as the compound, how does the inhibition read?
Answer: 9%

Question: How did the inhibition turn out when `O=C(c1ccco1)N1CCN(CCOCCOc2cccc3ccccc23)CC1` was run?
Answer: active: 77.4%

Question: Which inhibition does the source give for `CCOC(=O)C1CCCN(Cc2cccc(Oc3ccccc3)c2)C1` (stereo unspecified) here?
Answer: active: 39.5%

Question: With `CCNC(=S)NC1CC2CCCC(C1)N2Cc1ccc(C)cc1` (stereo unspecified) as the compound, how does the inhibition read?
Answer: active: 81.6%

Question: For `COc1ccc(CNc2nc(-c3ccc(Cl)cc3)nn2C(=O)c2ccccc2)cc1`, which inhibition is on record?
Answer: -5.37%

Question: For `CC(C)c1ccc(NC(=O)C2Cc3ccccc3N2C(=O)c2ccccc2)cc1` (stereo unspecified), which inhibition is on record?
Answer: -1.79%

Question: For `Cc1ccc(S(=O)(=O)C2(C(=O)Nc3ccc(C(C)C)cc3)CC2)cc1`, which inhibition is on record?
Answer: 4.76%

Question: `COc1ccccc1CNC(=O)c1ccc(CSc2nc3ccncc3n2Cc2ccccc2C)cc1` was tested. Which inhibition did it give?
Answer: 2.22%

Question: For `O=C(CCCn1c(=O)[nH]c2cc(Cl)ccc2c1=O)NCCN1CCN(c2ccccc2)CC1`, which inhibition is on record?
Answer: active: 81.3%

Question: For `O=c1cc(N2CCOCC2)[nH]c(=O)n1-c1ccc(Cl)cc1`, which inhibition is on record?
Answer: active: 41.1%

Question: For `CCCCCc1ccc(-c2ccc(C(=O)Oc3ccc(C(=O)OC)cc3)cc2)nc1`, which inhibition is on record?
Answer: 0.0701%

Question: `COc1ccccc1Nc1c2c(nc3ccc(NC(=O)/C=C/c4cc(OC)c(OC)c(OC)c4)cc13)CCCC2` was tested. Which inhibition did it give?
Answer: -5.57%

Question: For `Cc1ccn2c(Nc3c(C)cccc3C)c(-c3ccc(Cl)s3)nc2c1`, which inhibition is on record?
Answer: 13.5%

Question: Which inhibition does the source give for `COC(=O)CN1C(=O)C(C)(C)c2cc(S(=O)(=O)NCc3ccc(Cl)cc3)ccc21` here?
Answer: -3.83%

Question: `CCCCN(CCCC)C1=C(C(=O)c2ccccc2)N(CC)S(=O)(=O)c2ccccc21` was tested. Which inhibition did it give?
Answer: -2.79%

Question: For `Cc1ccc(-c2nc(-c3cc4cccc(OCc5cccc(F)c5)c4oc3=O)no2)cc1`, which inhibition is on record?
Answer: -3.29%

Question: Which inhibition does the source give for `CCOc1ccc(-n2c(Cc3ccccc3)nnc2SCc2nc(-c3cccs3)no2)cc1` here?
Answer: -7.75%

Question: Which inhibition does the source give for `COc1ccccc1NS(=O)(=O)c1cccc(C(=O)NC2CCN(Cc3ccccc3)CC2)c1` here?
Answer: active: 101%

Question: How did the inhibition turn out when `O=C(Nc1ccc(Br)cc1)c1ccc(Cl)c(S(=O)(=O)N2CCCCCC2)c1` was run?
Answer: -8.38%

Question: For `COc1cccc(NC(=O)c2sc3nc(C)c(C(=O)Nc4ccc(C)cc4C)c(-c4cccs4)c3c2N)c1`, which inhibition is on record?
Answer: -1.57%

Question: How did the inhibition turn out when `O=C(CC1Oc2ccccc2NC1=O)NCc1ccc(F)cc1` (stereo unspecified) was run?
Answer: 3.59%

Question: How did the inhibition turn out when `C=CC[n+]1c(-c2ccc(Cl)cc2Cl)csc1Nc1c(C)n(C)n(-c2ccccc2)c1=O` was run?
Answer: active: 48.9%

Question: How did the inhibition turn out when `COc1ccc(CC(=O)Nc2nnc3n2CCS3)cc1` was run?
Answer: -13.9%

Question: How did the inhibition turn out when `Cc1ccc(CSc2nc3ccsc3c(=O)n2CCC(C)C)cc1` was run?
Answer: -3.88%

Question: How did the inhibition turn out when `CCOc1ccccc1OCCN1CCC(Cc2ccccc2)CC1` was run?
Answer: active: 64%

Question: For `CCN1CCN(C(=O)c2ccc3c(c2)N(Cc2ccc(F)cc2)C(=O)c2ccccc2S3(=O)=O)CC1`, which inhibition is on record?
Answer: 3.65%

Question: For `CCn1c2c(c(=O)n3ncc(C(=O)Nc4ccc(F)cc4Cl)c13)CN(Cc1ccc(OC)cc1)CC2`, which inhibition is on record?
Answer: 19.4%

Question: Which inhibition does the source give for `Cc1c(NC(=O)c2ccc(Cl)cc2)cc(C(C)C)c(O)c1S(=O)(=O)c1ccccc1` here?
Answer: -5.06%

Question: With `CC1CCN(CCCOc2ccc(Br)cc2Cl)CC1` as the compound, how does the inhibition read?
Answer: active: 46.8%

Question: Which inhibition does the source give for `O=[N+]([O-])c1cc(CN2CCN(c3cccc(C(F)(F)F)c3)CC2)c2cccnc2c1O` here?
Answer: active: 36.3%

Question: With `COc1ccccc1C(=O)Nc1ccc(OCc2cc(=O)n3cccc(C)c3n2)cc1` as the compound, how does the inhibition read?
Answer: -10.9%

Question: For `CCc1ccc(NC(=O)c2ccc3c(O)c(S(=O)(=O)c4ccccc4)c(=O)[nH]c3c2)cc1`, which inhibition is on record?
Answer: -2.4%

Question: How did the inhibition turn out when `Cc1c(C(C)NC(=O)Nc2ccc(F)cc2F)cnn1C` (stereo unspecified) was run?
Answer: active: 38.2%

Question: With `Cc1cc(NC(=O)CSc2nc3c([nH]c4ccccc43)c(=O)n2-c2ccc(Cl)cc2)no1` as the compound, how does the inhibition read?
Answer: -15.2%

Question: For `Cc1cc(=O)n(Cc2ccccc2Cl)c2c1c(C)nn2-c1ccccc1`, which inhibition is on record?
Answer: 6.09%

Question: How did the inhibition turn out when `COc1ccccc1CNC(=O)CCc1c(C)nn(-c2ccc(N3CCCC3)nn2)c1C` was run?
Answer: 8.59%

Question: With `O=C(NCC1CCN(Cc2ccccc2Cl)CC1)c1cc2ccc3cccnc3c2[nH]1` as the compound, how does the inhibition read?
Answer: 15.5%

Question: With `CCC1CN(C(=O)N2CCC(C(=O)NCc3ccco3)CC2)c2cc(C)ccc2O1` (stereo unspecified) as the compound, how does the inhibition read?
Answer: 14.4%

Question: Which inhibition does the source give for `COc1ccc(CCN(C)Cc2nc(Cc3ccc(OC)c(OC)c3)no2)cc1OC` here?
Answer: active: 36.7%

Question: Which inhibition does the source give for `CC(C)c1nc2ccc(C(=O)NCCCN3CCN(c4ccc(F)cc4)CC3)cc2o1` here?
Answer: -19.1%

Question: For `Cn1c(=O)c2c(SCC(=O)N3CCCc4ccccc43)nc(C3CC3)nc2n(C)c1=O`, which inhibition is on record?
Answer: active: 35.2%

Question: `CCCCOc1ccc(CNC(=O)c2cnc3sc(N4CCC(C)CC4)nn3c2=O)cc1` was tested. Which inhibition did it give?
Answer: 7.37%

Question: For `COc1cccc(-n2c(-c3ccc(C)cc3)cc3c2CC(C)(C)CC3=O)c1`, which inhibition is on record?
Answer: -3.27%

Question: How did the inhibition turn out when `Cc1cc(C)c2c(CC(=O)Nc3c(C(=O)c4ccc(F)cc4)oc4ccccc34)coc2c1` was run?
Answer: -8.68%

Question: Which inhibition does the source give for `Cc1ccc2c(c1)CC(C)N2S(=O)(=O)c1nnc(NC(=O)CC(C)C)s1` (stereo unspecified) here?
Answer: 22.7%

Question: Which inhibition does the source give for `CC(C)c1ccc2occ(CC(=O)Nc3cccc(C(F)(F)F)c3)c2c1` here?
Answer: 0.507%

Question: With `COc1ccc(OC)c(NC(=O)CCc2c(C)nc3c(c(C)nn3C(C)(C)C)c2C)c1` as the compound, how does the inhibition read?
Answer: 0.281%

Question: `CCOC(=O)c1cc(OC(=O)c2cccc(Cl)c2)n(-c2ccccc2)n1` was tested. Which inhibition did it give?
Answer: -0.945%

Question: For `Cc1ccc(C)c(N2CCN(C(=O)Cn3c(C)c4cnn(-c5ccccc5)c(=O)c4c3C)CC2)c1`, which inhibition is on record?
Answer: 4.03%
